Test results taken from PubChem BioAssay AID902 (National Center for Advancing Translational Sciences (NCATS), 2007).
Screen size: about 130,000 compounds; about 1,900 (1.5%) were called active. Inconclusive means that the source gave no clear call. Such entries were picked first, then a sample of the others. The call rests on the fitted dose curve; in most records, active means well fitted cell-killing curve with a large enough effect; inconclusive means small, poorly fitted or top-dose-only effect; inactive means no such curve, though single readings can be large or run the other way. Potencies beside an inconclusive call are fits to weak or partial responses and may not hold up.

Assay: qHTS Screen for Compounds that Selectively Target Cancer Cells with p53 Mutations: Cytotoxicity of p53ts Cells at the Nonpermissive Temperature; further: nearly all actives have a fitted effect of over 55% in size
Conditions: H1299-p53A138V viability at 39C, ATP luminescence, 24 h; series mostly up to 46.1 µM
Potency means the concentration at half of the fitted maximal effect; tags describe the fitted curve by direction and shape.

Row | Compound | Potency
1 | O=C(c1cc2c(s1)CCCCC2)N1CCN(c2ncccn2)CC1 | inconclusive: 15.8 µM [cytotoxic, single point]
2 | COc1ccc(CNC(=O)CN(c2cccc(OC)c2)S(C)(=O)=O)cc1 | inactive
3 | CC1CCCCN1S(=O)(=O)c1ccc(C(=O)Nc2nnc(-c3ccccc3Cl)o2)cc1 (configuration not stated) | inconclusive: 0.794 µM [cytotoxic, single point]
4 | Cn1c(SCC(=O)OC2CCCCC2)nnc1-c1ccc(S(=O)(=O)N2CCCC2)cc1 | inconclusive: 12.6 µM [cytotoxic, single point]
5 | COc1ccc(OC)c(S(=O)(=O)N2CCC(C(=O)N3CCc4ccccc4C3)CC2)c1 | inactive
6 | CCOc1ccccc1NC(=O)C1=C(C)Nc2ncnn2C1c1cccs1 (configuration not stated) | inactive
7 | CCN[C@@H]1C[C@H](N)[C@H](O[C@H]2OC(CN)=CC[C@H]2N)[C@@H](O)[C@H]1O[C@H]1OC[C@@](C)(O)[C@@H](NC)[C@@H]1O | inactive
8 | O=C(c1cc(-c2cccs2)on1)N1CCCCC1 | inconclusive: 12.6 µM [cytotoxic, partial curve]
9 | Cn1cc(/C=N/n2cnc3scc(-c4ccccc4)c3c2=O)c2ccccc21 | inactive
10 | CCCCCCCCCCC(C)(C)C(=O)Nc1c(OC)cc(OC)cc1OC | inconclusive: 31.6 µM [cytotoxic, single point]
11 | CC1=C(C(=O)OCC2CCCCC2)C(c2c(F)cccc2Cl)CC(=O)N1 (configuration not stated) | inconclusive: 31.6 µM [cytotoxic, single point]
12 | Cc1cc(C(=O)Nc2ccc3c(c2)OCO3)cs1 | active: 10 µM
13 | COc1ccc(-c2noc(N3CCC(C(=O)Nc4ccc(C)c(F)c4)CC3)n2)cc1OC | inconclusive: 0.794 µM [cytotoxic, full curve, poor fit]
14 | O=c1[nH]c(N/N=C/c2ccc(O)cc2)nc2ccccc12 | inconclusive: 35.5 µM [cytotoxic, single point]
15 | COC(=O)c1ccc(Cn2c(SCc3cccc(C)c3)nc3ccncc32)cc1 | inconclusive: 25.1 µM [cytotoxic, partial curve, poor fit]
16 | Cc1cc(C)c(/C=C/c2onc(C)c2S(=O)(=O)N2CCC(C(=O)N3CCN(c4ccccc4)CC3)CC2)c(C)c1 | inactive
17 | CC1CCc2nc3ncn(CC(=O)Nc4cccc(C#N)c4)c(=O)c3cc2C1 (configuration not stated) | inactive
18 | Cc1ccc(NCc2nnc3n2CCCCC3)cc1Cl | inactive
19 | CC1(C)CNC(=O)c2sc(N3CCCCC3)nc2C1 | inactive
20 | CCOC(=O)C1=C(CN2CCC(C(=O)OCC)CC2)NC(=O)NC1c1ccc(Cl)cc1 (configuration not stated) | inconclusive: 12.6 µM [cytotoxic, partial curve]
21 | O[C@H](c1cc(C(F)(F)F)nc2c(C(F)(F)F)cccc12)[C@H]1CCCCN1 | inconclusive: 10 µM [cytotoxic, partial curve]

Row | Compound | Potency
22 | CC(C)OCCCN1C(=O)c2[nH]nc(-c3ccccc3O)c2C1c1ccc(OCc2ccccc2)cc1 (configuration not stated) | inconclusive: 31.6 µM [cytotoxic, single point]
23 | CCOc1ccccc1NC(=O)C(C)Sc1nc2c(c(=O)[nH]1)CCCC2 (configuration not stated) | inconclusive: 3.98 µM [cytotoxic, full curve, poor fit]
24 | Cc1cccc(NC(=O)CSc2nc3c([nH]c4ccccc43)c(=O)n2C)c1 | inconclusive: 10 µM [cytotoxic, partial curve]
25 | CCc1ccc(CN2CCc3nc(Nc4ccc5c(c4)OCCO5)ncc3C2)cc1 | inconclusive: 31.6 µM [cytotoxic, single point]
26 | COc1ccc(CCNc2oc(COc3ccc(Cl)cc3)nc2C#N)cc1OC | inconclusive: 20 µM [cytotoxic, single point]
27 | CCc1ccc2nc(N3CCN(C(=O)c4ccco4)CC3)sc2c1 | inconclusive: 10 µM [cytotoxic, partial curve]
28 | COc1ccc(OC)c(CNCc2c(C(=O)O)n(Cc3ccccc3)c3cc(OC)ccc23)c1 | inconclusive: 0.0032 µM [cytotoxic, full curve, poor fit]
29 | COc1ccc2nc(NC(=O)c3cnccn3)sc2c1 | inconclusive: 10 µM [cytotoxic, partial curve]
30 | FC(F)(F)c1cc(CO[C@H]2CCCN[C@H]2c2ccccc2)cc(C(F)(F)F)c1 | active: 12.6 µM
31 | CCc1ccc(-n2nc(C)c3c(C)cc(=O)n(CC(=O)Nc4ccc(OC)c(OC)c4)c32)cc1 | inactive
32 | Cc1ccc(NC(=O)Nc2cccs2)cc1 | inconclusive: 12.6 µM [cytotoxic, partial curve]
33 | CCCCN(CCCC)S(=O)(=O)c1ccc2oc(C(=O)NCc3ccccc3)c(C)c2c1 | inconclusive: 1.26 µM [cytotoxic, full curve, poor fit]
34 | CCOC(=O)c1c(C)oc2c(Cl)cc(NS(=O)(=O)c3ccc(Cl)c(C)c3)cc12 | inconclusive: 31.6 µM [cytotoxic, single point]
35 | Cc1cc(C(=O)Nc2ccccn2)cs1 | inconclusive: 10 µM [cytotoxic, partial curve]
36 | COC(=O)CC1C(=O)NCCN1C(=O)CSc1nnc(Nc2ccc(OC)cc2)s1 (configuration not stated) | inconclusive: 20 µM [cytotoxic, partial curve]
37 | COc1cccc(OC)c1C(=O)Nc1ccc2c(c1)CCCN2S(=O)(=O)c1ccc(C)cc1 | inconclusive: 31.6 µM [cytotoxic, single point]
38 | O=c1n(CC2CO2)c(=O)n(CC2CO2)c(=O)n1CC1CO1 (configuration not stated) | active: 15.8 µM
39 | Cn1c(C(=O)NCc2cccc(F)c2)cc2cc(S(=O)(=O)N3CCCCC3)ccc21 | inconclusive: 3.98 µM [cytotoxic, partial curve, poor fit]
40 | CCCOc1cccc(C(=O)Nc2ccc(-c3nc4ccccc4o3)cc2)c1 | inconclusive: 31.6 µM [cytotoxic, single point]
41 | COc1ccc(-c2nc(CNS(=O)(=O)c3ccc(F)cc3)cs2)cc1 | inconclusive: 0.01 µM [cytotoxic, full curve, poor fit]
42 | COc1ccc(NC(=O)CN2C(=O)C3(SCC(=O)N3c3ccccc3)c3ccccc32)cc1Cl (configuration not stated) | inconclusive: 0.126 µM [cytotoxic, full curve, poor fit]
